Data as given in the antibiotic and cytotoxicity screens of Wong et al. (2023).
The list shows a part of the results.

Tests used:
HSkMC = human skeletal muscle cells; experiment: cytotoxicity call (relative viability < 0.9); conditions: 10 µM
HepG2 = experiment: cytotoxicity call (relative viability < 0.9); conditions: 10 µM
S. aureus RN4220 = experiment: growth inhibition call (relative growth <= 0.2); conditions: 50 µM

SMILES | cytotoxicity call (HSkMC) | cytotoxicity call (HepG2) | growth inhibition call (S. aureus RN4220)
C[C@@H]1CCCCO[C@@H](CN(C)Cc2ccccc2)[C@@H](C)CN([C@@H](C)CO)C(=O)c2cc(NC(=O)c3ccncc3)ccc2O1 | inactive | inactive | inactive
C[C@@H]1CN([C@H](C)CO)C(=O)Cc2cc(NC(=O)c3ccncc3)ccc2O[C@H]1CN(C)C(=O)Nc1ccc2c(c1)OCO2 | inactive | inactive | inactive
C[C@@H]1CCCCO[C@H](CN(C)C(=O)Nc2ccc(C(F)(F)F)cc2)[C@@H](C)CN([C@H](C)CO)C(=O)c2cc(NS(=O)(=O)c3cn(C)cn3)ccc2O1 | inactive | inactive | inactive
C[C@@H]1CN([C@H](C)CO)C(=O)c2cccc(NC(=O)Nc3ccc(C(F)(F)F)cc3)c2O[C@H]1CN(C)C(=O)Nc1ccccc1 | inactive | inactive | inactive
COc1ccc(S(=O)(=O)N(C)C[C@H]2Oc3c(NS(=O)(=O)c4ccc(C)cc4)cccc3C(=O)N([C@H](C)CO)C[C@H]2C)cc1 | inactive | inactive | inactive
CC/N=C1\S[C@H](C(N)=O)CC(=O)N1CC | inactive | inactive | inactive
COc1cccc(NC(=O)N2C[C@H](O)COC[C@@H]3O[C@@H](CC(=O)NCCCN4CCOCC4)CC[C@H]32)c1 | inactive | inactive | inactive
C[C@@H]1CN([C@H](C)CO)S(=O)(=O)c2ccc(/C=C/c3ccccc3)cc2O[C@@H]1CN(C)C(=O)Nc1cc(F)ccc1F | inactive | active | inactive
COc1ccc(NC(=O)N(C)C[C@@H]2OCCCC[C@@H](C)Oc3ccc(NC(=O)Nc4ccc(F)cc4)cc3C(=O)N([C@@H](C)CO)C[C@@H]2C)cc1 | inactive | inactive | inactive
